Binding data for nine molecules are collected here from publication PMC9042921.

Like-named read-outs stand apart in the source and are kept apart here. No constants are given. Whether binding was seen depends on the method and setting. In cells and extracts the contact can be indirect. Some entries that bind do so weakly or less than the wild type. For some assays here: Sequences can lack the tags named with a protein.

The target in assay [1] is Flag-VP35 (EBOV VP35), expressed in HEK293 cells (Ebola virus (EBOV, Zaire ebolavirus)) (UniProt Q05127). The experiment in a line: co-IP.
Assay [2] concerns the target endogenous CREB1 of HepG2 cells (human (endogenous in HepG2)) (UniProt P16220). The experiment in a line: co-sedimentation.
The target is the same in assay [3]. As to the kind of experiment: proximity ligation.
Assay [4] has as its target L (large protein, viral RNA polymerase) of the EBOV minigenome (trVLPs) system, from pCAGGS-L (Ebola virus (EBOV, Zaire ebolavirus)) (UniProt Q05318). As to the kind of experiment: proximity ligation.
The target of assay [5] is endogenous CREB1 of HepG2 cells (human (endogenous in HepG2)) (UniProt P16220). The experiment in a line: co-IP.
Assay [6] concerns the target T1, Myc-AKIP1, expressed in HEK293 cells (human) (UniProt Q9NQ31).
T1 sequence: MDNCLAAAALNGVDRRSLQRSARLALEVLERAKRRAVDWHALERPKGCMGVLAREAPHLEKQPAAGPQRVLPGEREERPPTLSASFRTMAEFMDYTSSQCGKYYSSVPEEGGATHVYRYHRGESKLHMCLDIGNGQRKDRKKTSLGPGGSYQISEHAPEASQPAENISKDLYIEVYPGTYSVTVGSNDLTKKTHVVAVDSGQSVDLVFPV
As to the kind of experiment: co-IP.

The target in assay [7] is Flag-cGAS (UniProt Q8N884). As to the kind of experiment: co-IP; control pair G3BP1 and cGAS, lysate without RNase treatment (Supplementary Fig. 1e, not shown).
Assay [8] concerns the target Flag-cGAS (UniProt Q8N884). The experiment in a line: co-IP; control pair G3BP1 and cGAS, lysate with RNase treatment (Supplementary Fig. 1e, not shown).
Assay [9] concerns the target viral VP35 in HepG2 cells infected with live EBOV (strain Mayinga) (Zaire EBOV (strain Mayinga)) (UniProt Q05127). The experiment in a line: proximity ligation.
Assay [10] deals with GFP-VP35 (EBOV VP35), expressed in HepG2 cells (Ebola virus (EBOV, Zaire ebolavirus)) (UniProt Q05127). The experiment in a line: proximity ligation.
Assay [11] concerns the target VP35 of the EBOV minigenome (trVLPs) system, from pCAGGS-VP35 (Ebola virus (EBOV, Zaire ebolavirus)) (UniProt Q05127). The experiment in a line: proximity ligation.
The target in assay [12] is Flag-VP35 (EBOV VP35), expressed in HepG2 cells (Ebola virus (EBOV, Zaire ebolavirus)) (UniProt Q05127). As to the kind of experiment: co-IP.
Assay [13] deals with VP35 of the EBOV minigenome (trVLPs) system, from pCAGGS-VP35 (Ebola virus (EBOV, Zaire ebolavirus)) (UniProt Q05127). As to the kind of experiment: co-IP.
Assay [14] addresses Flag-VP35 (EBOV VP35), expressed in HEK293 cells (Ebola virus (EBOV, Zaire ebolavirus)) (UniProt Q05127). The experiment in a line: co-IP. The source holds these as a separate data set.
For assay [15], the target named is VP35 of Reston virus (RESTV) (Reston virus (RESTV)) (UniProt Q8JPY0). As to the kind of experiment: co-IP.

As for “Myc-AKIP1 N-terminal region (1-100) (from UniProt Q9NQ31 1-100) (domain or fragment)”, the binding result in [1] is given as “no binding”.

In the case of “VP35 of the EBOV minigenome (trVLPs) system, from pCAGGS-VP35 (from UniProt Q05127 1-340)”, the binding result in assay [2], in [3], in [4] and in assay [5] was “binds” each time.

For the molecule “NP (nucleoprotein) of the EBOV minigenome (trVLPs) system, from pCAGGS-NP (from UniProt P18272 1-739)”, the binding result in assay [2], in assay [3] and in [5] was “binds” in each case.

As for “Flag-VP35 (EBOV VP35), expressed in HEK293 cells (from UniProt Q05127 1-340)”, in assay [6], the binding result is “binds”.

Regarding “L (large protein, viral RNA polymerase) of the EBOV minigenome (trVLPs) system, from pCAGGS-L (from UniProt Q05318 1-2212) (enzyme)”, the binding result in assay [5] was “binds”.

Regarding GFP-G3BP1 (from UniProt Q13283 1-466), the binding result is recorded as “binds” with Flag-cGAS [7] and “no binding (condition: with RNase treatment)” with Flag-cGAS [8].

As for “Myc-AKIP1 C-terminal region (101-210) (from UniProt Q9NQ31 101-210) (domain or fragment)”, the binding entry in assay [1] is “binds”.

B1: endogenous AKIP1 (A kinase interacting protein 1) of HepG2 cells (protein, UniProt Q9NQ31 1-210)
chain: T1 sequence
Consider B1, for which the binding result in assay [9], in assay [10], in [11], in [12] and in assay [13] was “binds” throughout.

B2: Myc-AKIP1, expressed in HEK293 cells (protein, UniProt Q9NQ31 1-210)
chain: T1 sequence
B2: the results for the binding entry in [14] and in assay [15] were “binds” and “no binding”, respectively.
